These are yes or no findings as the source states them, for the method shown. For part of these data: Binding seen in cells or lysates may run through a third protein. Some binding calls cover weakened binding; strength is not graded here. Sequences can lack the tags named with a protein.

Sequences of proteins named here, by UniProt entry; tags and fusion partners are left off.
UniProt Q09196: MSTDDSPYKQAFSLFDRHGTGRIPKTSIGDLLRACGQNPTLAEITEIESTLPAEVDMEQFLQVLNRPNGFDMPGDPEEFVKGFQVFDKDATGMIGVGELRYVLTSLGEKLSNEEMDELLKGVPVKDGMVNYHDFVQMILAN

These results are taken from article PMC12803953, “The MO25 protein Pmo25 functions in contractile ring stability and Sid2 localization during cytokinesis” (iScience, 2025).

The target in experiment [1] is T1, Pmo25-mECitrine (S. pombe) (UniProt Q9P7Q8).
T1 sequence: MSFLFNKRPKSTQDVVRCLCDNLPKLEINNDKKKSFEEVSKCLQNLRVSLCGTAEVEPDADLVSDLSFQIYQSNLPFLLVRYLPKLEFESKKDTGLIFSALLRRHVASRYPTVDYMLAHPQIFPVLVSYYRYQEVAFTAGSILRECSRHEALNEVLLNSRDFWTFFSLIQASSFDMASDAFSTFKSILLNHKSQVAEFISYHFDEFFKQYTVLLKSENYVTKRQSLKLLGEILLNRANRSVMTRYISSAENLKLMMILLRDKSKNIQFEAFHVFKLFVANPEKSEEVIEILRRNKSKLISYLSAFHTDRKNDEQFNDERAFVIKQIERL
As to the kind of experiment: co-IP; S. pombe cell extracts, tagged proteins under native promoters; anti-GFP polyclonal antibody on protein G Dynabeads, 1.5 h at 4°C; IP buffer 50 mM HEPES pH 7.5, 150 mM NaCl, 1 mM EDTA, 0.5% NP-40; blot with anti-Myc and anti-GFP.

Experiment [2] deals with BD-Cdc4 (full length Cdc4 in pGBT9) (S. pombe) (UniProt Q09196). As to the kind of experiment: two-hybrid; S. cerevisiae MaV203; full length Pmo25 in pVP16 (AD) with full length contractile-ring proteins in pGBT9 (BD); LacZ as a reporter.
Experiment [3] concerns the target T2, MBP-Ync13-(591–1130)-6His (S. pombe, UniProt O13683 591-1130).
T2 construct: The cloning of this fragment is not described; not shown: MBP, N-terminal, kept; His6, C-terminal, kept
T2 sequence (looked up): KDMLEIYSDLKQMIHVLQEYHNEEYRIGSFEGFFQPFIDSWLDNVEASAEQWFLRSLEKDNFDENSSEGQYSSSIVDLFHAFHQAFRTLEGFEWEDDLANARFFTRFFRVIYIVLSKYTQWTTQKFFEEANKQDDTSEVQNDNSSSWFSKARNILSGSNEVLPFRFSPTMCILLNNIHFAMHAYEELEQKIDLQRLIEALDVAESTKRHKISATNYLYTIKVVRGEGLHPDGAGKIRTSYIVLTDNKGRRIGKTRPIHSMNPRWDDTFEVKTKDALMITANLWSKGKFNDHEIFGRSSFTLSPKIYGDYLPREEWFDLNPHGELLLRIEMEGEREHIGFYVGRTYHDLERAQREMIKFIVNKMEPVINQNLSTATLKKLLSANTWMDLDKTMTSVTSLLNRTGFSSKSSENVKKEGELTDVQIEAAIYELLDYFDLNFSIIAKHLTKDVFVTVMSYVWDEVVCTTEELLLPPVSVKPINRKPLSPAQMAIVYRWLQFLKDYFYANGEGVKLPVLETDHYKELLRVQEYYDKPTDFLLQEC
As to the kind of experiment: pull-down; MBP-Ync13 proteins bound to amylose beads, incubated with Pmo25-6His proteins 1 h at 4°C; binding buffer 137 mM NaCl, 2 mM KCl, 10 mM Na2HPO4, 2 mM KH2PO4, 0.5 mM DTT, 10% glycerol, pH 7.4; 4 washes; beads on SDS-PAGE, Coomassie Blue; both purified.

Experiment [4] deals with mYFP-Cdc4 (S. pombe) (UniProt Q09196). As to the kind of experiment: co-IP; S. pombe cell extracts, tagged proteins under native promoters; anti-GFP polyclonal antibody on protein G Dynabeads, 1.5 h at 4°C; IP buffer 50 mM HEPES pH 7.5, 150 mM NaCl, 1 mM EDTA, 0.5% NP-40; blot with anti-Myc and anti-GFP.
The target in experiment [5] is T3, BD-Ync13 COOH-terminus (591–1237 aa) (S. pombe) (UniProt O13683).
T3 sequence: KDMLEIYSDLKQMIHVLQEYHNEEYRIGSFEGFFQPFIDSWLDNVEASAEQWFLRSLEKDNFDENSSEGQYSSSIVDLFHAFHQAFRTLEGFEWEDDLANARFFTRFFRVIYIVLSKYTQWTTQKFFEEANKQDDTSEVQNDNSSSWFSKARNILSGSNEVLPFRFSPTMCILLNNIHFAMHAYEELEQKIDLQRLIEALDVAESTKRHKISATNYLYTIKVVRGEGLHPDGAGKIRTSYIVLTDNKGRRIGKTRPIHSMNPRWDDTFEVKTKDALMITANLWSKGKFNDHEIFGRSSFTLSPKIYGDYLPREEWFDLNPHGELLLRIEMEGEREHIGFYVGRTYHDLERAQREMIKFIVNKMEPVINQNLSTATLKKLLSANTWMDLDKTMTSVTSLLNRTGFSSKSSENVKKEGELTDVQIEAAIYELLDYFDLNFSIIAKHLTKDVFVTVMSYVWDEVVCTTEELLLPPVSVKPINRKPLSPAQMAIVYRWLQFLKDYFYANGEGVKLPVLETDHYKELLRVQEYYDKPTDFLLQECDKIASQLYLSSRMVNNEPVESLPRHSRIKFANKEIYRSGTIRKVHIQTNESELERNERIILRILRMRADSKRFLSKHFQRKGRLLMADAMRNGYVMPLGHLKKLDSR
The experiment in a line: two-hybrid; S. cerevisiae MaV203; Ync13 fragments in pGBT9 (BD) as baits, prey from the pACT2 library; reporters URA3, HIS3, LacZ; quadruple dropout medium with 3AT and LacZ coloration.

Experiment [6] addresses T4, BD-Ync13 NH2-terminus (1–590 aa) (S. pombe) (UniProt O13683).
T4 sequence: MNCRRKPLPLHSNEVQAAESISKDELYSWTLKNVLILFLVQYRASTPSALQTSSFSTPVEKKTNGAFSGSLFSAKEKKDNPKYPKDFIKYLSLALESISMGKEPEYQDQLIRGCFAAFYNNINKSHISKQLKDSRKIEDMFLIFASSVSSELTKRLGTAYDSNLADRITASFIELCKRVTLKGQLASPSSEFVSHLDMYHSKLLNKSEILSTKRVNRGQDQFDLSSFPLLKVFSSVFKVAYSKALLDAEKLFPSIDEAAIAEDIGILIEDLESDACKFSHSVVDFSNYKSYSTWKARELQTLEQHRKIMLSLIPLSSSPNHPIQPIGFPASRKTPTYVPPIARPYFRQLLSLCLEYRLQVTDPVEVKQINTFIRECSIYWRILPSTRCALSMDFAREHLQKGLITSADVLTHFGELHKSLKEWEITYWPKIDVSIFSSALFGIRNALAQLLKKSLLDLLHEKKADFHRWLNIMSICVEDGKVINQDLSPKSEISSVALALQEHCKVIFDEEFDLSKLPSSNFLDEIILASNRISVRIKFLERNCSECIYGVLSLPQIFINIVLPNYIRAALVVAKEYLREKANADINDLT
The experiment is described as above.

B1: Sid2-13Myc (enzyme, UniProt Q09898 1-607)
chain: MNRVNDMSPVEGDLGLQLSSEADKKFDAYMKRHGLFEPGNLSNNDKERNLEDQFNSMKLSPVASSKENYPDNHMHSKHISKLPIASPIPRGLDRSGELSYKDNNHWSDRSSTGSPRWENGSMNLSVEEMEKVVQPKVKRMATICQMFFLDHYFEQLHYLYTRKQRARLFEEQLLKEPDSRRDELVKRYNGRERVYLRKRRTRISHGDFQTITQVGQGGYGSVWLARKRDTKEIVALKIMNKSVLHKMDEIRHVLTERDILTTANSEWLVRLLYAFQDTSNIYLAMEFVPGGDFRTLLSNSGVLRDHHAKFYATEMFLAIDALHQLGYIHRDLKPENFLVGASGHIKLTDFGLSSGIISKKKIESMKIRLQEVNNVVVPERSMRERRQVFRTLLSQDPVYAHSVVGSPDYMAPEVLRGENYNHSVDYWSLGCIMYECLSGFPPFSGSNVNETWSNLKNWRKCFQRPHYDDPRDLEFNWRDDAWDFVCHCITDPKDRFCSLKQVMQHPYFSKIDWKNVRTAYRPPFVPDLNSEIDAGYFDDFTNENDMSKYKEVHEKQAAIANMVNTFNKPKRNAFIGFTFRHQKNSHPTSSSSALSSPLSAPSFGTLL
Regarding B1, the binding result in experiment [1] is on record as “binds”.

B2: AD-Pmo25 (full length Pmo25 fused to the VP16 transcription activation domain) (protein, UniProt Q9P7Q8 1-329)
chain: MSFLFNKRPKSTQDVVRCLCDNLPKLEINNDKKKSFEEVSKCLQNLRVSLCGTAEVEPDADLVSDLSFQIYQSNLPFLLVRYLPKLEFESKKDTGLIFSALLRRHVASRYPTVDYMLAHPQIFPVLVSYYRYQEVAFTAGSILRECSRHEALNEVLLNSRDFWTFFSLIQASSFDMASDAFSTFKSILLNHKSQVAEFISYHFDEFFKQYTVLLKSENYVTKRQSLKLLGEILLNRANRSVMTRYISSAENLKLMMILLRDKSKNIQFEAFHVFKLFVANPEKSEEVIEILRRNKSKLISYLSAFHTDRKNDEQFNDERAFVIKQIERL
With B2, in experiment [2], the binding result is recorded as “binds weakly”.

B3: Pmo25-full length-6His (protein, UniProt Q9P7Q8 1-329)
chain: MSFLFNKRPKSTQDVVRCLCDNLPKLEINNDKKKSFEEVSKCLQNLRVSLCGTAEVEPDADLVSDLSFQIYQSNLPFLLVRYLPKLEFESKKDTGLIFSALLRRHVASRYPTVDYMLAHPQIFPVLVSYYRYQEVAFTAGSILRECSRHEALNEVLLNSRDFWTFFSLIQASSFDMASDAFSTFKSILLNHKSQVAEFISYHFDEFFKQYTVLLKSENYVTKRQSLKLLGEILLNRANRSVMTRYISSAENLKLMMILLRDKSKNIQFEAFHVFKLFVANPEKSEEVIEILRRNKSKLISYLSAFHTDRKNDEQFNDERAFVIKQIERL
Consider B3, for which the binding entry in experiment [3] is “no binding”.

B4: Pmo25-13Myc (protein, UniProt Q9P7Q8 1-329)
chain: MSFLFNKRPKSTQDVVRCLCDNLPKLEINNDKKKSFEEVSKCLQNLRVSLCGTAEVEPDADLVSDLSFQIYQSNLPFLLVRYLPKLEFESKKDTGLIFSALLRRHVASRYPTVDYMLAHPQIFPVLVSYYRYQEVAFTAGSILRECSRHEALNEVLLNSRDFWTFFSLIQASSFDMASDAFSTFKSILLNHKSQVAEFISYHFDEFFKQYTVLLKSENYVTKRQSLKLLGEILLNRANRSVMTRYISSAENLKLMMILLRDKSKNIQFEAFHVFKLFVANPEKSEEVIEILRRNKSKLISYLSAFHTDRKNDEQFNDERAFVIKQIERL
As for B4, the binding result in experiment [4] was “binds”.

B5: Pmo25-(19–329)-6His (domain or fragment, S. pombe, UniProt Q9P7Q8 19-329, looked up)
chain: LCDNLPKLEINNDKKKSFEEVSKCLQNLRVSLCGTAEVEPDADLVSDLSFQIYQSNLPFLLVRYLPKLEFESKKDTGLIFSALLRRHVASRYPTVDYMLAHPQIFPVLVSYYRYQEVAFTAGSILRECSRHEALNEVLLNSRDFWTFFSLIQASSFDMASDAFSTFKSILLNHKSQVAEFISYHFDEFFKQYTVLLKSENYVTKRQSLKLLGEILLNRANRSVMTRYISSAENLKLMMILLRDKSKNIQFEAFHVFKLFVANPEKSEEVIEILRRNKSKLISYLSAFHTDRKNDEQFNDERAFVIKQIERL
notes: in pET21a between the N-terminal T7 tag and the C-terminal 6xHis tag; not shown: His6, C-terminal, kept
As for B5, the binding result in experiment [5] is recorded as “binds”; in experiment [6], “no binding”.
